Test results from PubChem BioAssay AID1963576 (National Center for Advancing Translational Sciences (NCATS), 2024).
About 60 (0.1%) of roughly 46,000 compounds were called active. Roughly 3% stayed inconclusive and do not appear here. Calls come from the whole dose curve; as a rule, active = well fitted inhibition curve with a large enough effect; inconclusive = small, poorly fitted or top-dose-only effect; inactive = no such curve, though single readings can be large or run the other way. This is one part of the list.

Test: Primary qHTS assay for Inhibitors of ovarian cancer metastasis using an organotypic tumor microenvironment (TME) model.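 For activity change, negative = inhibition: plate controls were DMSO wells for no effect and tomatine positive control wells for full effect.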 Note: nearly all actives have a fitted effect of over 65% in size.
Details: SKOV3ip1-GFP adhesion/invasion on 3D omental model, fluorescence; series mostly up to 45.8 µM; activity change, negative = inhibition: at the top concentration
Outline: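 Adhesion/invasion was scored as fixed GFP-labeled SKOV3ip1 cell counts (488/509 nm), normalized to DMSO and tomatine controls. Cancer cells in serum-free medium, with four compound doses (0.36-46 umol/L), sat 2 hr at RT then 16 hr at 37 C on a 48 hr fibroblast/mesothelial/ECM culture.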

outcome, inactive:
CCC(=O)N1CCc2cc(S(=O)(=O)Nc3cc(C)ccc3OC)ccc21
CC1CCN(C(=O)CSc2nc3ccccc3nc2Cc2ccccc2)CC1
COc1cccc(NC(=O)Cn2c(=O)n(CCCCC(=O)NCc3ccccc3Cl)c(=O)c3ccccc32)c1
COc1ccc(Cn2ccnc2SCC(=O)Nc2nnc(C)s2)cc1
Cc1nn2c(C)c(C(=O)NCc3ccc(OC(C)C)cc3)cnc2c1-c1ccc(F)cc1
Cc1ccc2nc(-c3ccc(Cl)s3)c(Nc3ccc4c(c3)OCCO4)n2c1
Cc1cccc(NC(=O)CN2C(=O)C(c3ccc(F)cc3)=NC23CCCCCC3)c1
CCN(CCCNC(=O)c1nn(-c2ccc(C)cc2)c(=O)c2c1c1ccccc1n2C)c1cccc(C)c1
CCOc1ccccc1NC(=O)c1ccc(F)c(S(=O)(=O)N2CCN(c3ccc(F)cc3)CC2)c1
CCN(CC)CCCNC(=O)CCC(=O)NNc1nc2ccccc2c2nc(C)nn12
O=C(COc1ccc(Cl)cc1)Nc1nnc(S(=O)(=O)N2CCCCCC2)s1
CCOc1cccc(CC(=O)N2CCc3c([nH]c4ccc(OC)cc34)C2c2ccc(F)cc2)c1OCC (centres undefined)
Cc1ccc(-c2nn(-c3ccccc3)c3c2cnc2ccccc23)cc1C
COc1ccc(CCNC(=O)c2ccc3c(c2)N(Cc2ccccc2)CCS3)cc1OC
CCOc1ccc(NC(=O)C(=O)NCCc2csc(-c3ccc(C(F)(F)F)cc3)n2)cc1
COc1ccc(OC)c(-c2noc(N3CCN(c4ccc(Cl)cc4)CC3)n2)c1

Activity change, negative = inhibition, inactive:
CCOc1ccccc1N1CCN(S(=O)(=O)c2ccc(C3CCCCC3)cc2)CC1 -6.49%
O=C(CSc1ncc(S(=O)(=O)c2ccc(Br)cc2)c(=O)[nH]1)Nc1ccc2c(c1)OCCO2 -16.9%
CCCCC(Sc1nc2cc3c(cc2c(=O)n1CCCC(=O)NCc1ccc2c(c1)OCO2)OCO3)C(=O)OCC (centres undefined) -7.01%
COc1ccccc1CNC(=O)c1ccc2c(c1)N(Cc1c(F)cccc1Cl)C(=O)CS2 -0.919%
Cc1cc(C)cc(NC(=O)c2cc(S(=O)(=O)N3CCc4ccccc43)cn2C)c1 -9.33%
O=C(Nc1ccc2oc(-c3cccc(F)c3)nc2c1)c1ccc2ccccc2c1 1.68%
CC(C)c1ccc(NC(=O)Cn2cc(S(=O)(=O)Cc3ccccc3Cl)c3ccccc32)cc1 -29.1%
COc1cccc(-n2c(SCc3ccc(F)cc3)nc3c([nH]c4ccccc43)c2=O)c1 -5.02%
COC(=O)c1ccc(NC(=O)CN(C)S(=O)(=O)c2ccc(Br)s2)cc1 -1.03%
Cc1ccc(CNC(=O)C(C)n2nc(C)c3sc4ccccc4c3c2=O)cc1 (centres undefined) 7.55%
Cc1cc(C)c(NC(=O)Cn2c(=O)n(Cc3ccc(C(=O)NCc4ccc5c(c4)OCO5)cc3)c(=O)c3ccccc32)c(C)c1 -7.4%
CC(=O)c1c(C)oc2c1cc(NS(=O)(=O)c1ccc(C(C)(C)C)cc1)c1ccccc12 6.21%
COc1ccc(NC(=O)Cn2c(=O)c3ccccc3n3nncc23)c(OC)c1 -4.35%
COc1cccc(CNC(=O)CN2C(=O)COc3ccc(S(=O)(=O)N4CCOCC4)cc32)c1 -5.79%
CCn1c(=O)cc(OCC(=O)N2CCN(c3cccc(C)c3C)CC2)c2ccccc21 -1.13%
Cc1ccc(CNC(=O)c2ccc(N3CCCC3)c(NC(=O)Nc3ccc(F)c(Cl)c3)c2)cc1 1.02%
CC(C)Cc1nn2c(=O)cc(COC(=O)c3ccc(NC(=O)C4CCCCC4)cc3)nc2s1 -0.286%
COc1ccc(NC(=O)c2cc(S(=O)(=O)N3CCCC3)ccc2OC)cc1 -22%
COC(=O)c1ccccc1NC(=O)CN1C(=O)COc2ccc(Cl)cc21 0.939%
COc1cccc(C(=O)Oc2c(Sc3ccc(C)cc3)c(C)nn2C(C)(C)C)c1OC -35.9%
Cc1cccc(C(=O)N2CCc3cc(CNC(=O)CSc4ccccc4)ccc32)c1 -0.68%
CCOc1ccc(NC(=O)c2cc(C)nc3c2c(C)nn3-c2ccc(C)cc2)cc1 0.0625%
CCOc1ccc(C(=O)NCCSc2c(C)[nH]c3ccccc23)cc1OCC 0.295%
CCOc1ccc(C(=O)NCC(c2cccs2)S(=O)(=O)c2ccccc2)cc1 (centres undefined) 4.81%
COc1ccccc1CNC(=O)c1cc2c(s1)-c1ccc(Cl)cc1SC2 5.17%
Cc1ccccc1CNC(=O)CSc1nnc(C)c2c(C)n(-c3ccccc3)nc12 -7.61%
Cn1cc(-c2cnn3c(N)c(Br)c([C@H]4CCCNC4)nc23)cn1 17.9%
CCOC(=O)c1c(NC(=O)c2cc(-c3ccc(OC)c(OC)c3)on2)sc(C)c1C -8.04%
COc1ccccc1N1CCN(C(CNC(=O)C(=O)NCc2cccnc2)c2cccnc2)CC1 (centres undefined) 23.3%
CC(=O)N1CCCc2cc(S(=O)(=O)N3CCC(C(=O)Nc4ccc(C)cc4Cl)CC3)ccc21 -0.764%
CCCCOc1ccc(C2C(C(=O)Nc3ccccc3OC)=C(C)Nc3nnnn32)cc1OC (centres undefined) -7.81%
Cc1ccn2c(Nc3ccc4c(c3)OCCO4)c(-c3ccccc3O)nc2c1 6.17%
Cc1ccc(S(=O)(=O)n2nc(C)c(S(=O)(=O)N3CCCCCC3)c2C)cc1C 39.1%
Cc1ccc(NC(=O)c2oc3c(c2C)-c2[nH]ncc2CC3)c(Cl)c1 -7.31%
Cc1ccc(CNC(=O)c2ccc(Nc3nc4ccccc4n4nnnc34)cc2)cc1 1.38%
Cc1cc(NC(=O)Nc2nnc(N3CCCCCC3)s2)ccc1Br -4.41%
Cc1ccc(C(=O)N2CCn3c4c(c5cc(C)ccc53)CCCC42)cc1 (centres undefined) -0.245%
Cc1cc(C)cc(NS(=O)(=O)c2ccc3[nH]cc(C(=O)NCCc4ccccc4)c(=O)c3c2)c1 -4.35%
Cn1cnc(S(=O)(=O)N2CCCC(C(=O)NCc3ccc(F)cc3)C2)c1 (centres undefined) 10.2%
Cc1ccc(S(=O)(=O)N(CCc2ccccc2)CC(=O)Nc2ccccc2C)cc1 -6.84%
CNC(=O)c1c(-c2ccc(F)cc2)oc2cc(N(CCO)S(C)(=O)=O)c(C3CC3)cc12 -0.637%
CC(C)c1ccc(NS(=O)(=O)c2cc(Br)cc3c2N(C(=O)C2CC2)CC3)cc1 1.54%
COC(=O)c1sc2c(c1C)c(=O)n(-c1ccccc1)c(=O)n2CC(=O)Nc1cccc(C)c1 -5.42%
